We go through 39 molecules from publication PMC12040169 (PLOS Biology, 2025).

Some of the results follow.

This experiment deals with T1, C. trachomatis L2/434/Bu expressing GFP (CTL2-GFP).
T1 construct: L2/434/Bu GFP intracellular growth in HeLa cells
Set-up: species or system HeLa; C. trachomatis total inclusion area by high-content imaging, normalised to DMSO. Particulars: total inclusion area; 28.5 h, 10 µM; inhibitor. Summed up: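 High-content imaging followed the bulk GFP/resorufin measurement: fixed, Hoechst-stained cells were scored for GFP inclusions and host nuclei per well. Total inclusion area and count served as growth proxies, nuclei number as the viability proxy. MIC calculation matched the bulk assay.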
Regarding `O=C(O)C1CCN(C(=O)c2ccc3nsnc3c2)CC1` [CBK057344], the “% of control remaining” value turned out to be 91.933.

Turning to `COc1ccc(NC(=O)C2CN(S(=O)(=O)c3ccccc3)CCN2S(=O)(=O)c2ccccc2)cc1` (stereo not drawn) [CBK262500], the “% of control remaining” value came out at 76.0047. The value for `CN(C)C(=O)c1cccc(CNc2ncnc3c2cnn3CCC#N)c1` [CBK305955] was 37.8706; that for `CCOC(=O)c1ccc(N/C=C(\C#N)c2nc(-c3cc4ccccc4oc3=O)cs2)cc1` [CBK262356] was 101.527; that for `CN(C)CC(=O)N1CCN(c2cncc(-c3ccc(O)cc3)n2)CC1` [CBK126921T] was 96.7959. As to `NC1=NNC2=C(c3cccc(Cl)c3)NNN12` [CBK093661], the “% of control remaining” value turned out to be 78.7116.

As to `Cc1c(C(=O)NC(C)c2cc3ccccc3o2)cnn1C` (stereo not drawn) [CBK283074], the “% of control remaining” value is reported as 128.703. With `O=C(c1ccc(F)cc1)N1C[C@H](c2ccsc2)[C@H]2CN(Cc3cccs3)CC[C@H]21` [CBK285636], the “% of control remaining” value is given as 72.0078. Take `O=C(CSc1ncnc2c1oc1ccccc12)NC1CCCCC1` [CBK287396]: the “% of control remaining” value is 122.377.

For the molecule `COc1ccccc1C1(NC(=O)CCn2nccc2C)CCCC1` [CBK283628], the “% of control remaining” value was 98.736. Then `COc1ccc(CNC(=O)c2nc(-c3ccccn3)no2)cc1` [CBK287877], with 88.9086; and `O=C(Nc1nc2ccccc2s1)c1cc([N+](=O)[O-])ccc1Cl` [CBK072428], with 97.8349. The value for `Cc1ccc(SCc2ccc(C(=O)Nc3ccccc3C(=O)N3CCCC3)cc2)cc1` [CBK268217] was 101.051; that for `CC(C)Nc1nccnc1-c1cccnc1` [CBK037054] was 102.729. Take `O=C(CCS(=O)(=O)c1nc(-c2ccccc2)cc(C(F)(F)F)n1)Nc1ccc(Cl)cc1Cl` [CBK268717]: the “% of control remaining” value worked out at 73.8089. Turning to `Fc1ccc(NC(=S)NNC(=S)Nc2cccc3ccccc23)c(F)c1` [CBK266982], the “% of control remaining” value stood at 103.255. On to `CCOc1cccc(-c2cn3ccnc3c(NC3CC3)n2)c1` [CBK066736], for which the “% of control remaining” value was found to be 117.993.

As to `FC(F)(F)c1ccc(Sc2cccs2)nc1` [CBK115236], the “% of control remaining” value was determined as 90.5624. Regarding `CC(=O)NC(Cc1c[nH]c2ccccc12)C(=O)N(C)Cc1cnn(C)c1` (stereo not drawn) [CBK305274], the “% of control remaining” value is 72.789. The value for `CC1CCc2c(sc(NC(=O)c3cnccn3)c2C(N)=O)C1` (stereo not drawn) [CBK265466] was 69.2055; that for `CS(=O)(=O)N1CCCCCC1c1cc(-c2cccs2)on1` (stereo not drawn) [CBK284670] was 83.4369; that for `COc1ccccc1C(=O)N1CCN(C(=O)CN2CCCC2)CC1` [CBK024836] was 67.439. The value for `CCn1cc(S(=O)(=O)Nc2cccc(CCCC(=O)O)c2)cn1` [CBK304717] was 82.5514; that for `O=C(NCc1ccccc1)c1ccno1` [CBK200197] was 97.5573.

Consider `Cc1cc(CNC(=O)N2CCCCC2CO)no1` (stereo not drawn) [CBK156160], for which the “% of control remaining” value worked out at 93.713. For the molecule `CCN(CC)C(=O)C1CCCN(C(=O)NCc2ccc(Cl)c(Cl)c2)C1` (stereo not drawn) [CBK156119], the “% of control remaining” value worked out at 78.4122. The value for `CCc1cnc(CN(C)C2CCN(CC(=O)Nc3cccnc3)C2)o1` (stereo not drawn) [CBK305358] was 76.8429; that for `N#C/C(=C\c1cn(CCC(N)=O)c2ccccc12)Sc1nc2ccccc2s1` [CBK267897] was 74.3028.

Take `COCCCn1c(N)c(C(=O)NCC(C)C)c2nc3ccccc3nc21` [CBK126495]: the “% of control remaining” value is reported as 100.979.

With `CC(=O)[C@H]1C[C@@H](CC(=O)Nc2ccc(Cl)nc2)C1(C)C` [CBK091338], the “% of control remaining” value turned out to be 94.1615. In the case of `Cn1nc(NC(=O)c2ccco2)c2c(F)cccc21` [CBK057774], the “% of control remaining” value was 64.5778. The value for `CCOC(=O)c1c(NC(=O)Cn2nc([N+](=O)[O-])c(Cl)c2C)sc2c1CCC(C)C2` (stereo not drawn) [CBK263054] was 101.13; that for `O=C(CC12CC3CC(CC(C3)C1)C2)Nc1nc[nH]n1` [CBK288208] was 75.4275. With `O=C1CN(C(=O)Cn2c(-c3cccs3)cc3cccnc32)CCN1` [CBK282543], the “% of control remaining” value came out at 120.477. In the case of `N=c1n(CC(=O)O)c2ccccc2n1Cc1ccccc1` [CBK286531], the “% of control remaining” value was 114.002. Take `O=C(NCCCn1ccnc1)c1cnn2c(C(F)(F)F)cc(-c3cccs3)nc12` [CBK263060]: the “% of control remaining” value worked out at 106.767. With `O=C(O)c1ccccc1N1C(=O)c2ccc(Oc3ccc(Oc4ccc5c(c4)C(=O)N(c4ccccc4C(=O)O)C5=O)cc3)cc2C1=O` [CBK261186], the “% of control remaining” value amounted to 105.829. The value for `CCOc1cccc(-c2cncc(N(C)CCN(C)C)n2)c1` [CBK065977] was 118.762. Then `Fc1cccc(COc2nc3ccccc3n3nnnc23)c1` [CBK288198], with 89.7675.
